# Data: the supplement of paper PMC8728848
# The list shows a part of the results.
# B1: LecB PA7 (Pseudomonas aeruginosa) (protein)
# chain: MATQGVFTLPANTRFGVTAFANSSATQTVKVLVNNETAATFTGQSTNNAVIGSQVLNSGGGGKVQIQVSVNGRSSDLVSAQVILANELNVALVGSEDSTDNDYNDAVVVINWPLG
# What was measured:
# Test in all cases: glycan array binding signal (z-score within array); higher = stronger binding
# Settings in all cases: glycan notation: IUPAC condensed, linker removed
# Fuc(a1-2)Gal = biological target: Fuc(a1-2)Gal
# Outline: (§1)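 Negative Z-scores can be read as non-binding. The Z-score is calculated within each array and then averaged across arrays of one protein sequence at different concentrations or buffers and across linkers. Arrays, 3228 in all, were curated from the Consortium for Functional Glycomics database and kept only where the protein sequence was available.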
# Fuc(a1-2)Gal(b1-3)GalNAc = biological target: Fuc(a1-2)Gal(b1-3)GalNAc
# Outline: as §1
# [1] = biological target: Fuc(a1-2)Gal(b1-3)GalNAc(a1-3)[Fuc(a1-2)]Gal(b1-4)Glc
# Outline: as §1
# [2] = biological target: Fuc(a1-2)Gal(b1-3)GalNAc(a1-3)[Fuc(a1-2)]Gal(b1-4)GlcNAc
# Outline: as §1
# [3] = biological target: Fuc(a1-2)Gal(b1-3)GalNAc(b1-3)Gal
# Outline: as §1
# [4] = biological target: Fuc(a1-2)Gal(b1-3)GalNAc(b1-3)Gal(a1-4)Gal(b1-4)Glc
# Outline: as §1
# [5] = biological target: Fuc(a1-2)Gal(b1-3)GalNAc(b1-4)[Neu5Ac(a2-3)]Gal(b1-4)Glc
# Outline: as §1
# Fuc(a1-2)Gal(b1-3)GlcNAc = biological target: Fuc(a1-2)Gal(b1-3)GlcNAc
# Outline: as §1
# [6] = biological target: Fuc(a1-2)Gal(b1-3)GlcNAc(b1-2)Man(a1-3)[Fuc(a1-2)Gal(b1-3)GlcNAc(b1-2)Man(a1-6)]Man(b1-4)GlcNAc(b1-4)GlcNAc
# Outline: as §1
# [7] = biological target: Fuc(a1-2)Gal(b1-3)GlcNAc(b1-2)Man(a1-3)[Fuc(a1-2)Gal(b1-3)GlcNAc(b1-2)Man(a1-6)]Man(b1-4)GlcNAc(b1-4)[Fuc(a1-6)]GlcNAc
# Outline: as §1
# [8] = biological target: Fuc(a1-2)Gal(b1-3)GlcNAc(b1-3)Gal(b1-4)Glc
# Outline: as §1
# [9] = biological target: Fuc(a1-2)Gal(b1-3)GlcNAc(b1-3)GalNAc
# Outline: as §1
# [10] = biological target: Fuc(a1-2)Gal(b1-3)GlcNAc(b1-3)[Fuc(a1-2)Gal(b1-3)GlcNAc(b1-6)]GalNAc
# Outline: as §1
# [11] = biological target: Fuc(a1-2)Gal(b1-3)GlcNAc(b1-3)[Gal(b1-4)GlcNAc(b1-6)]Gal(b1-4)Glc
# Outline: as §1
# [12] = biological target: Fuc(a1-2)Gal(b1-3)GlcNAc(b1-3)[Neu5Ac(a2-6)Gal(b1-4)GlcNAc(b1-6)]Gal(b1-4)Glc
# Outline: as §1
# [13] = biological target: Fuc(a1-2)Gal(b1-3)GlcNAc6S
# Outline: as §1
# [14] = biological target: Fuc(a1-2)Gal(b1-3)[Fuc(a1-4)]GlcNAc
# Outline: as §1
# [15] = biological target: Fuc(a1-2)Gal(b1-3)[Fuc(a1-4)]GlcNAc(b1-2)Man(a1-3)[Fuc(a1-2)Gal(b1-3)[Fuc(a1-4)]GlcNAc(b1-2)Man(a1-3)]Man(b1-4)GlcNAc(b1-4)GlcNAc
# Outline: as §1
# [16] = biological target: Fuc(a1-2)Gal(b1-3)[Fuc(a1-4)]GlcNAc(b1-2)Man(a1-3)[Fuc(a1-2)Gal(b1-3)[Fuc(a1-4)]GlcNAc(b1-2)Man(a1-6)]Man(b1-4)GlcNAc(b1-4)[Fuc(a1-6)]GlcNAc(b1-4)[Fuc(a1-6)]GlcNAc
# Outline: as §1
# [17] = biological target: Fuc(a1-2)Gal(b1-3)[Fuc(a1-4)]GlcNAc(b1-3)[Fuc(a1-3)[Gal(b1-4)]GlcNAc(b1-6)]Gal(b1-4)Glc
# Outline: as §1
# [18] = biological target: Fuc(a1-2)Gal(b1-3)[Fuc(a1-4)]GlcNAc(b1-3)[Gal(b1-4)GlcNAc(b1-6)]Gal(b1-4)Glc
# Outline: as §1
# Fuc(a1-2)Gal(b1-4)Glc = biological target: Fuc(a1-2)Gal(b1-4)Glc
# Outline: as §1
# Fuc(a1-2)Gal(b1-4)Glc6S = biological target: Fuc(a1-2)Gal(b1-4)Glc6S
# Outline: as §1
# Fuc(a1-2)Gal(b1-4)GlcNAc = biological target: Fuc(a1-2)Gal(b1-4)GlcNAc
# Outline: as §1
# [19] = biological target: Fuc(a1-2)Gal(b1-4)GlcNAc(b1-2)Man
# Outline: as §1
# [20] = biological target: Fuc(a1-2)Gal(b1-4)GlcNAc(b1-2)Man(a1-3)[Fuc(a1-2)Gal(b1-4)GlcNAc(b1-2)Man(a1-6)]Man(b1-4)GlcNAc(b1-4)GlcNAc
# Outline: as §1
# [21] = biological target: Fuc(a1-2)Gal(b1-4)GlcNAc(b1-2)Man(a1-3)[Fuc(a1-2)Gal(b1-4)GlcNAc(b1-2)Man(a1-6)]Man(b1-4)GlcNAc(b1-4)[Fuc(a1-6)]GlcNAc
# Outline: as §1
# [22] = biological target: Fuc(a1-2)Gal(b1-4)GlcNAc(b1-2)[Fuc(a1-2)Gal(b1-4)GlcNAc(b1-4)]Man(a1-3)[Fuc(a1-2)Gal(b1-4)GlcNAc(b1-2)Man(a1-6)]Man(b1-4)GlcNAc(b1-4)GlcNAc
# Outline: as §1
# [23] = biological target: Fuc(a1-2)Gal(b1-4)GlcNAc(b1-3)Gal(b1-4)GlcNAc
# Outline: as §1
# [24] = biological target: Fuc(a1-2)Gal(b1-4)GlcNAc(b1-3)Gal(b1-4)GlcNAc(b1-2)Man(a1-3)[Fuc(a1-2)Gal(b1-4)GlcNAc(b1-3)Gal(b1-4)GlcNAc(b1-2)Man(a1-6)]Man(b1-4)GlcNAc(b1-4)GlcNAc
# Outline: as §1
# [25] = biological target: Fuc(a1-2)Gal(b1-4)GlcNAc(b1-3)Gal(b1-4)GlcNAc(b1-3)Gal(b1-4)GlcNAc
# Outline: as §1
# [26] = biological target: Fuc(a1-2)Gal(b1-4)GlcNAc(b1-3)GalNAc
# Outline: as §1
# [27] = biological target: Fuc(a1-2)Gal(b1-4)GlcNAc(b1-3)[Fuc(a1-2)Gal(b1-4)GlcNAc(b1-6)]GalNAc
# Outline: as §1
# [28] = biological target: Fuc(a1-2)Gal(b1-4)GlcNAc(b1-3)[Fuc(a1-3)[Gal(b1-4)]GlcNAc(b1-6)]Gal(b1-4)Glc
# Outline: as §1
# [29] = biological target: Fuc(a1-2)Gal(b1-4)GlcNAc(b1-6)GalNAc
# Outline: as §1
# [30] = biological target: Fuc(a1-2)Gal(b1-4)GlcNAc6S
# Outline: as §1
# [31] = biological target: Fuc(a1-2)Gal(b1-4)[Fuc(a1-3)]GlcNAc
# Outline: as §1
binder,measurement,setting,value
B1,glycan array binding signal (z-score),Fuc(a1-2)Gal,1.56
same,glycan array binding signal (z-score),Fuc(a1-2)Gal(b1-3)GalNAc,0.771
same,glycan array binding signal (z-score),[1],1.71
same,glycan array binding signal (z-score),[2],1.07
same,glycan array binding signal (z-score),[3],0.062
same,glycan array binding signal (z-score),[4],2.76
same,glycan array binding signal (z-score),[5],0.732
same,glycan array binding signal (z-score),Fuc(a1-2)Gal(b1-3)GlcNAc,1.44
same,glycan array binding signal (z-score),[6],-0.011
same,glycan array binding signal (z-score),[7],0.703
same,glycan array binding signal (z-score),[8],1.78
same,glycan array binding signal (z-score),[9],1.09
same,glycan array binding signal (z-score),[10],-0.033
same,glycan array binding signal (z-score),[11],0.558
same,glycan array binding signal (z-score),[12],0.012
same,glycan array binding signal (z-score),[13],1.33
same,glycan array binding signal (z-score),[14],1.14
same,glycan array binding signal (z-score),[15],0.011
same,glycan array binding signal (z-score),[16],1.24
same,glycan array binding signal (z-score),[17],0.726
same,glycan array binding signal (z-score),[18],0.667
same,glycan array binding signal (z-score),Fuc(a1-2)Gal(b1-4)Glc,1.39
same,glycan array binding signal (z-score),Fuc(a1-2)Gal(b1-4)Glc6S,1.89
same,glycan array binding signal (z-score),Fuc(a1-2)Gal(b1-4)GlcNAc,2.27
same,glycan array binding signal (z-score),[19],-0.131
same,glycan array binding signal (z-score),[20],1.78
same,glycan array binding signal (z-score),[21],1.02
same,glycan array binding signal (z-score),[22],1.33
same,glycan array binding signal (z-score),[23],3.5
same,glycan array binding signal (z-score),[24],10.1
same,glycan array binding signal (z-score),[25],3.71
same,glycan array binding signal (z-score),[26],0.923
same,glycan array binding signal (z-score),[27],1.32
same,glycan array binding signal (z-score),[28],0.964
same,glycan array binding signal (z-score),[29],0.819
same,glycan array binding signal (z-score),[30],1.51
same,glycan array binding signal (z-score),[31],2.33
